# Test results reported in PubChem BioAssay AID504333 (National Center for Advancing Translational Sciences (NCATS), 2011).
# In all, about 360,000 compounds went through this assay and about 16,000 (4.4%) were called active. The inconclusive results got no clear call from the source; some entries with a clear call stand among them for comparison. Calls follow the shape of the dose curve; as a rule, active = well fitted inhibition curve with a large enough effect; inconclusive = small, poorly fitted or top-dose-only effect; inactive = no such curve, though single readings can be large or run the other way. Potencies beside an inconclusive call are fits to weak or partial responses and may not hold up.
# Molecular target: Bromodomain adjacent to zinc finger domain protein 2B (Homo sapiens) (UniProt Q9UIF8)
# Assay: qHTS Assay for Inhibitors of BAZ2B; also: nearly all actives have a fitted effect of over 60% in size
# Conditions: AlphaScreen BAZ2B-H3K14Ac peptide displacement; series mostly up to 114 µM
# In short: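 In this displacement format the biotinylated H3(5-23) peptide acetylated at Lys14 serves as ligand at 50 nM, with BAZ2B at 50 nM in PBS pH 7.4 containing 0.01% Tween-20. Donor and acceptor beads are 10 ug/mL final.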
# Potency is read from the fitted curve at half-maximal effect; tags tell the direction and shape of the fitted curve.
# Sequence of UniProt Q9UIF8 (Q9UIF8 whole entry, looked up, the tested form may be a part): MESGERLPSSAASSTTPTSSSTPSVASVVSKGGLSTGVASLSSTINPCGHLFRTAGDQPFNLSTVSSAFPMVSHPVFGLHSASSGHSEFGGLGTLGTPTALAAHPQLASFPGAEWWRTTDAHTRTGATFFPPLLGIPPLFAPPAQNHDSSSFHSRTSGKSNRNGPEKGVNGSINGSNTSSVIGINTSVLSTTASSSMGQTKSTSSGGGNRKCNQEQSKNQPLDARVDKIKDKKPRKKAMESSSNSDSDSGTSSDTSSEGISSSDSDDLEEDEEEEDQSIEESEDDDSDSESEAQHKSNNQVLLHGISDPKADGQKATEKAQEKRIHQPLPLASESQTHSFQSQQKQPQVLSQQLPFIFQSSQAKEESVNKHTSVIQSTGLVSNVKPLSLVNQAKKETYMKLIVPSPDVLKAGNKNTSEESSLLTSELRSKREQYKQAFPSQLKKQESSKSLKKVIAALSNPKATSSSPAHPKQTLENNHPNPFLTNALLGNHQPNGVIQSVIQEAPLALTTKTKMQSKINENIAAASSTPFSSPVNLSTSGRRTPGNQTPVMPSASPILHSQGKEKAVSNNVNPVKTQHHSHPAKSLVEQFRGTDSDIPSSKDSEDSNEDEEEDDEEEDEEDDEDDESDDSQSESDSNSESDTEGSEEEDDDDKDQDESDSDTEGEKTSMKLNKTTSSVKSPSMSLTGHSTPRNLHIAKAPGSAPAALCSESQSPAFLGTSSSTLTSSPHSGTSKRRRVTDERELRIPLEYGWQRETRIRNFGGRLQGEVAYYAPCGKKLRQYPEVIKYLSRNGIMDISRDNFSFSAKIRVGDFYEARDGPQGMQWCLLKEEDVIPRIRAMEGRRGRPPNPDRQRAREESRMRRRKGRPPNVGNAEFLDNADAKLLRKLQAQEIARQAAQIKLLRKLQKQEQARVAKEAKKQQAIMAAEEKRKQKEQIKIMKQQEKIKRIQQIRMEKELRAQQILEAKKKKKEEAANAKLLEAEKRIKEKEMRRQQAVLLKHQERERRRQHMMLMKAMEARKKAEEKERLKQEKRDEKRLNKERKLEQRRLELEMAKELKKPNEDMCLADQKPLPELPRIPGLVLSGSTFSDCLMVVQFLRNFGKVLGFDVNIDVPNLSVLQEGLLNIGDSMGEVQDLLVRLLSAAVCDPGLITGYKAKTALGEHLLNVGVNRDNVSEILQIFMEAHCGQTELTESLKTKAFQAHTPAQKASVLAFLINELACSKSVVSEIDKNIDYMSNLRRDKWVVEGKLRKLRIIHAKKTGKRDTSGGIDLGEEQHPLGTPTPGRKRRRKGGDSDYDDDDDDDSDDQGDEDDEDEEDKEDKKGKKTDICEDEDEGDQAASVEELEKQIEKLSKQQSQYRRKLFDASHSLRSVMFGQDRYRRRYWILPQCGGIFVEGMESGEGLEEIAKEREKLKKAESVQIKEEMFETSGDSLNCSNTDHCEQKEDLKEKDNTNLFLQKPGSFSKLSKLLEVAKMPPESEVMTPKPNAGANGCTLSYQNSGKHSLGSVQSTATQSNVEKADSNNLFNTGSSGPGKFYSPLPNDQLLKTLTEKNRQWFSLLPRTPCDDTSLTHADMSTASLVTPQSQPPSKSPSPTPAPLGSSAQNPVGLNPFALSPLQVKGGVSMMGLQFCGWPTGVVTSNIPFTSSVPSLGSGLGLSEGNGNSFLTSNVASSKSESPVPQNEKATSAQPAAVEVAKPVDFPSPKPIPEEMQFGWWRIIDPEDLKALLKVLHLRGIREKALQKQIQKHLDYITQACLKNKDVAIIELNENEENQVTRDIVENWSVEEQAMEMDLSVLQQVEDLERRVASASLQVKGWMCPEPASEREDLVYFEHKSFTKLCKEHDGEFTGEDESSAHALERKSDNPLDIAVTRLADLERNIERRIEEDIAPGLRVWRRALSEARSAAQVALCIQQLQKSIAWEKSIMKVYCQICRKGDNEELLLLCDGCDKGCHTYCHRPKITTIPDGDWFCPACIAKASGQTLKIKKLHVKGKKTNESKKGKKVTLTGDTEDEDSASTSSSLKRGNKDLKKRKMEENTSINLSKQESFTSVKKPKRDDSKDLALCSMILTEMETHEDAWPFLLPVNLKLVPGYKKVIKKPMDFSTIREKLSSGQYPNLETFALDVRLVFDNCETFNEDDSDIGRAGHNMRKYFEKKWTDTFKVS
row,SMILES,Potency
1,CC(Nc1ccc(F)cc1)=[N+](C)CCNS(=O)(=O)c1ccc(Cl)cc1,active: 50.1 µM
2,O=[N+]([O-])c1ccccc1CNc1ccc(F)c(Cl)c1,active: 50.1 µM
3,COc1cc(S(=O)(=O)NCCc2c(C)[nH]c3ccc(C)cc23)ccc1Br,"inconclusive: 44.7 µM [inhibitor, partial curve]"
4,N#C/C(=C\c1ccccc1)c1n[nH]c(Cn2cncn2)n1,"inconclusive: 89.1 µM [inhibitor, single point]"
5,N#Cc1nc(-c2ccc(F)cc2)oc1NCCCn1ccnc1,inactive
6,O=C(NCCCN1CCN(c2ccccc2)CC1)c1sc2ncccc2c1-n1cccc1,"inconclusive: 35.5 µM [inhibitor, partial curve]"
7,CS(=O)(=O)c1ccc2c(c1)sc1nc(=O)c(/C=C3/C=CC(=O)C(O)=C3)c(N)n12,active: 14.1 µM
8,Cc1ccccc1N=Nc1c(N)n[nH]c1N,"inconclusive: 44.7 µM [inhibitor, partial curve]"
9,Nc1nc(CSC(=S)N2CCN(c3ccccc3)CC2)nc(Nc2ccc(F)cc2)n1,"inconclusive: 44.7 µM [inhibitor, partial curve]"
10,COc1ccc(CCN2C(=O)c3[nH]nc(-c4ccccc4O)c3C2c2cccc(O)c2)cc1OC (centres undefined),"inconclusive: 44.7 µM [inhibitor, partial curve]"
11,CCOC(=O)c1c(S(=O)(=O)N(C)C2CCCCC2)c(C)n(C)c1C,"inconclusive: 79.4 µM [inhibitor, single point]"
12,O=Cc1ccc(-c2cc(Cl)ccc2Cl)[nH]1,"inconclusive: 79.4 µM [inhibitor, single point]"
13,COc1ccccc1NC(=O)c1cc2ccc(O)cc2o/c1=N\O,inactive
14,CCc1nnc(NC(=O)CN2CCN(C3CCCCC3)CC2)s1,"inconclusive: 79.4 µM [inhibitor, single point]"
15,CCOCc1cc(CN2CCN(c3cccc(C(F)(F)F)c3)CC2)c(O)c2ncccc12,active: 28.2 µM
16,O=C(O)CCCn1c(=S)[nH]c2c(sc3ccc([N+](=O)[O-])cc32)c1=O,"inconclusive: 89.1 µM [inhibitor, single point]"
17,COc1cc(N=Cc2c(O)[nH]c3ccccc23)cc(OC)c1OC,"inconclusive: 89.1 µM [inhibitor, single point]"
18,O=C(NC1CCCCCC1)C(=O)NC1CC1,"inconclusive: 89.1 µM [inhibitor, single point]"
19,COc1ccc(OC)c(S(=O)(=O)Nc2ccc(O)c3ccccc23)c1,active: 44.7 µM
20,CCOc1ccc(-n2ccnc2SCC(=O)Nc2cc(C)ccc2C)cc1,"inconclusive: 2.51 µM [inhibitor, single point]"
21,O=[N+]([O-])c1cc(Cl)cc(/C=N/NC(=S)Nc2cc(S(=O)(=O)N3CCOCC3)ccc2Cl)c1O,active: 1.78 µM
22,CC(Oc1cccc(Cl)c1)C(=O)Nc1nc(-c2ccccn2)cs1 (centres undefined),active: 56.2 µM
23,O=C1COc2ccc(C(=O)COC(=O)c3cc(S(=O)(=O)N4CCOCC4)ccc3F)cc2N1,"inconclusive: 56.2 µM [inhibitor, partial curve]"

row,SMILES,Potency
1,Cc1cccc(/C=C/C(=O)c2ccc(NC3=NCCCS3)cc2)c1,"inconclusive: 35.5 µM [inhibitor, partial curve]"
2,C=CCC(C(=O)OC)(C(=O)OC)c1ccc([N+](=O)[O-])cc1[N+](=O)[O-],"inconclusive: 50.1 µM [inhibitor, partial curve]"
3,Nc1ccc2nc(-c3cccc(-c4nc5ccc(N)cc5[nH]4)c3)[nH]c2c1,"inconclusive: 44.7 µM [inhibitor, partial curve]"
4,CSCC[C@H](NC(=O)[C@H](Cc1ccccc1)n1c(=O)[nH]c2ccccc2c1=O)C(=O)N1CCC(C(=O)O)CC1,inactive
5,COc1ccc(-n2c(C)c(C)c3c(N)ncnc32)cc1,"inconclusive: 89.1 µM [inhibitor, single point]"
6,O=c1[nH]c(CN2CCN(S(=O)(=O)c3ccc4ccccc4c3)CC2)nc2ccccc12,inactive
7,O=C(CCCN1C(=O)/C(=C/c2cccc(Br)c2)SC1=S)Nc1ccccn1,"inconclusive: 8.91 µM [inhibitor, full curve]"
8,NC(=O)c1nsc(C(=O)N(CC(=O)NC2CCCCC2)Cc2ccc(F)cc2)c1N,inactive
9,CCOC(=O)N1CCc2c(sc3c2c(=O)n(Cc2ccccc2)c(=O)n3CC(=O)Nc2ccc(F)cc2)C1,inactive
10,O=C(CN(CC1CCCO1)S(=O)(=O)c1ccc(S(=O)(=O)NC2CC2)cc1)Nc1ccccc1 (centres undefined),inactive
11,COc1ccccc1NC(=S)N1CCN(c2cccc(C)c2C)CC1,"inconclusive: 89.1 µM [inhibitor, single point]"
12,CCOc1ccc(N2CC(NC(=O)c3ccc(Cl)cc3)CC2=O)cc1 (centres undefined),inactive
13,CCOC(=O)c1c(-c2ccco2)csc1NC(=O)COC(=O)c1cnccn1,inactive
14,Cc1ccc2c(c1)c1c(c(=O)n(Cc3ccccc3)c(=O)n1Cc1ccccc1F)n2C,inactive
15,Cc1cccc(NC(=S)N(CCN2CCOCC2)Cc2cc3cc4c(cc3[nH]c2=O)OCCO4)c1,"inconclusive: 17.8 µM [inhibitor, full curve]"
16,COc1cccc(-c2c(C(=O)N/N=C/c3ccc(C)o3)nnn2-c2nonc2N)c1,"inconclusive: 79.4 µM [inhibitor, single point]"
17,COc1cc(-c2nnc(NC(=O)CCS(=O)(=O)c3ccc(F)cc3)o2)cc(OC)c1OC,"inconclusive: 89.1 µM [inhibitor, single point]"
18,Cc1cc(Cl)c(OCCCn2ccnc2)c(Br)c1,active: 50.1 µM
19,CCc1cc(C(=O)NNC(=O)CCN2CCN(c3ccccc3)CC2)sc1C,"inconclusive: 79.4 µM [inhibitor, single point]"
20,O=C(Nc1ccon1)c1sc2cc(Cl)ccc2c1Cl,"inconclusive: 70.8 µM [inhibitor, single point]"
21,Cc1cccc(N2CCN(C(=O)C3CCN(C(=O)c4cc5sccc5n4C)CC3)CC2C)c1 (centres undefined),active: 35.5 µM
22,CCOc1ccc2nc(Cl)c(C3CC(c4ccc(C)cc4)=NN3C(=O)CCC(=O)O)cc2c1 (centres undefined),"inconclusive: 56.2 µM [inhibitor, single point]"
23,Cc1onc(-c2ccccc2)c1-c1n[nH]c(=S)n1-c1ccc(C(=O)O)cc1,"inconclusive: 89.1 µM [inhibitor, single point]"

row,SMILES,Potency
1,O=S(=O)(Nc1ncccn1)c1ccc(NC(=S)NCc2ccco2)cc1,inactive
2,CCOc1ccc(-c2cnc3n2CCCCC3)cc1,"inconclusive: 39.8 µM [inhibitor, partial curve]"
3,Clc1cccc(CNc2nc(-c3cccnc3)nc3ccccc23)c1,"inconclusive: 89.1 µM [inhibitor, single point]"
4,O=C1c2ccccc2C(Nc2ccc3nc(-c4cccnc4)[nH]c3c2)N1Cc1ccco1 (centres undefined),"inconclusive: 70.8 µM [inhibitor, single point]"
5,COc1ccc(CCNC(=O)c2ccc3c(c2)N(Cc2ccccc2)C(=O)c2ccccc2S3=O)cc1OC (centres undefined),"inconclusive: 22.4 µM [inhibitor, full curve, poor fit]"
6,CCOC(=O)c1c(NC(=O)C(C)Sc2cccc[n+]2[O-])sc2c1CCN(Cc1ccccc1)C2 (centres undefined),inactive
7,CCOc1ccc(NC(=O)C(Cc2ccccc2)NS(=O)(=O)c2ccc3c(c2)oc(=O)n3C)cc1 (centres undefined),"inconclusive: 89.1 µM [inhibitor, single point]"
8,CCS(=O)(=O)c1ncc(N(Cc2ccccc2)Cc2ccco2)c(C(=O)Nc2cccc(Cl)c2C)n1,"inconclusive: 39.8 µM [inhibitor, single point]"
9,Cc1c(Cl)cccc1-c1ccc(CNCCSc2nnnn2-c2ccccc2)o1,"inconclusive: 20 µM [inhibitor, full curve]"
10,COc1ccc(OC)c(/C=C2\NC(=O)NC2=O)c1,inactive
11,CC(=O)N1CCN(CC(=O)Nc2ccc(C)c(F)c2)CC1,active: 44.7 µM
12,CCOC(=O)C1=C(CN2CCCCCC2)NC(=O)NC1c1cccc([N+](=O)[O-])c1 (centres undefined),"inconclusive: 35.5 µM [inhibitor, full curve, poor fit]"
13,O=C1Nc2ccccc2S/C1=C/NCc1ccccc1Cl,"inconclusive: 50.1 µM [inhibitor, partial curve]"
14,Cc1nnc(NC(=O)C2C3C=CC(O3)C2C(=O)O)s1 (centres undefined),"inconclusive: 89.1 µM [inhibitor, single point]"
15,O=C(Nc1ccccc1N1CCN(c2ccccc2)CC1)c1ccccc1F,"inconclusive: 39.8 µM [inhibitor, partial curve]"
16,O=C(CC1C(=O)NCCN1Cc1ccccn1)NCCc1ccccc1F (centres undefined),"inconclusive: 79.4 µM [inhibitor, partial curve]"
17,Cc1cc(Cl)ccc1N=c1ssnc1Cl,active: 8.91 µM
18,c1csc(-c2nn[nH]n2)c1,"inconclusive: 89.1 µM [inhibitor, single point]"
19,CC1Cc2ccccc2N1Cc1nc2cc(Cl)ccc2c(=O)[nH]1 (centres undefined),"inconclusive: 79.4 µM [inhibitor, single point]"
20,O=C(COC(=O)CCc1nc2ccccc2s1)NC(=O)NCc1ccco1,active: 50.1 µM
21,CCOc1ccc(-n2c(SCC(=O)Nc3ccc(C(=O)O)cc3)nc3ccccc3c2=O)cc1,inactive
22,Cc1cccc(C(=O)NCc2ccc(S(N)(=O)=O)cc2)c1[N+](=O)[O-],"inconclusive: 89.1 µM [inhibitor, single point]"
23,CCc1nnc(NC(=O)C(CC)CC)s1,inactive
